# In PubChem BioAssay AID2551 (National Center for Advancing Translational Sciences (NCATS), 2010):
# The whole screen tested about 310,000 compounds, of which about 17,000 (5.5%) were called active. Another 11% or so got no clear call; they are omitted. Calls follow the shape of the dose curve; as a rule, active = well fitted inhibition curve with a large enough effect; inconclusive = small, poorly fitted or top-dose-only effect, or effect the other way; inactive = no such curve, though single readings can be large or run the other way. Only a part is listed here, and it is no random draw. The source holds several records for some structures; these can differ, active in one and inactive in another.
# Biological target: Nuclear receptor ROR-gamma (Mus musculus) (UniProt P51450)
# Sequence of UniProt P51450 (P51450 whole entry, looked up): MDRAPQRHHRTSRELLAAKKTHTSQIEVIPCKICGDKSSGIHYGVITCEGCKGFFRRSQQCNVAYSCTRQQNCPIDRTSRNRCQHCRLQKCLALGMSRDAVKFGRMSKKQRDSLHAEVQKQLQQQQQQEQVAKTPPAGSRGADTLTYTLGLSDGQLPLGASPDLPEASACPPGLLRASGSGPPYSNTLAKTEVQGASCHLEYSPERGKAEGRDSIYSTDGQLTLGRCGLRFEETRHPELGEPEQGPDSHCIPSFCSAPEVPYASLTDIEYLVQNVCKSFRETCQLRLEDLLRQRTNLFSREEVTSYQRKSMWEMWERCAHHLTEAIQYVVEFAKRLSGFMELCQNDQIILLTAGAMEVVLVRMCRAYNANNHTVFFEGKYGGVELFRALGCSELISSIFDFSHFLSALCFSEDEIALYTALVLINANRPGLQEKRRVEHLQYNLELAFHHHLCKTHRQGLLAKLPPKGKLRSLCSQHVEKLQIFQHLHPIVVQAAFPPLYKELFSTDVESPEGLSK
# Assay: qHTS for inhibitors of ROR gamma transcriptional activity; also: nearly all actives have a fitted effect of over 60% in size
# Conditions: Drosophila S2 Gal4-RORgamma UAS-luciferase reporter, 20 h; series mostly up to 53.6 µM; activity change, negative = inhibition: at the top concentration
# Summary of the method: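 Read-out: Photinus luciferase luminescence; inhibitors lower reporter signal. Insect Schneider cells with Gal4-ROR gamma fusion under metallothionein promoter, UAS reporter; 700 uM final copper sulfate induction, 20 hr, ambient temperature.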
# % is scaled to controls: 0 for no effect and ±100 for the full control effect; potency is read from the fitted curve at half-maximal effect.
SMILES,"activity change, negative = inhibition",Potency
C=CCc1ccc(OC(=O)c2ccccc2)c(OC)c1,inactive: -0.229%,
CCCC[C@H]1C(=O)N(c2ccccc2)N(c2ccc(O)cc2)C1=O,inactive: 5.25% [at 2.98 µM],
C#Cc1ccc([C@H]2C=C(C(=O)N3CCN(Cc4ccccc4)CC3)O[C@@H](OCC)[C@@H]2CCCO)cc1,inactive: 22.2%,
COc1cc(-c2ccc(N=Nc3ccc4c(S(=O)(=O)O)cc(S(=O)(=O)O)c(N)c4c3O)c(OC)c2)ccc1N=Nc1ccc2c(S(=O)(=O)O)cc(S(=O)(=O)O)c(N)c2c1O,inactive: -28.2% [at 16.9 µM],
COc1ccc(-c2cc(C(=O)N/N=C(\C)c3ccco3)c3ccccc3n2)c(OC)c1,,active: 6.31 µM
CC12CCC3c4ccc(O)cc4CCC3C1CCC2O (stereo not drawn),inactive: -9.48%,
Cc1cc(NC(=O)c2ccccc2)n(-c2nc3ccccc3[nH]2)n1,,active: 1 µM
CCNC(=O)/C(=C\c1ccc2c(c1)OCO2)NC(=O)c1ccc(Br)cc1,inactive: 0.619%,
COc1cc(CCN2C(=O)N[C@@H](c3cccc(C(F)(F)F)c3)C(C(C)=O)=C2C)cc(OC)c1OC,inactive: -27.9%,
CCO[C@@H]1OC(C(=O)NCc2ccccc2)=C[C@H](C2CC2)[C@H]1CCCO,inactive: 6.9%,
COC(=O)C1C2CC3c4[nH]c5cc(OC)ccc5c4CCN3CC2CC(OC(=O)c2cc(OC)c(OC)c(OC)c2)C1OC (stereo not drawn),,inactive
O=C(OC1CCOC1=O)c1ccc(-c2nc3ccccc3s2)s1 (stereo not drawn),,active: 3.55 µM
CCOC(=O)[C@@H]1[C@H]2COc3ccccc3[C@@H]2N2C(=O)N(c3ccc(Cl)cc3)C(=O)[C@]12C,inactive: -0.14%,
Cc1nc(-c2ccc(S(=O)(=O)NCc3ccccn3)s2)cs1,,active: 10 µM
COc1ccc(/C=C2\SC(=O)N(CCC(=O)Nc3ccccc3)C2=O)cc1OC,inactive: 3.35%,
COc1cc(O)c2c(=O)c(O)c(-c3ccc(O)c(O)c3)oc2c1,inactive: 12.2%,
[O-][n+]1ccccc1SSc1cccc[n+]1[O-],,active: 0.355 µM
Cn1c(=O)c(C(=O)COC(=O)c2cc(C(F)(F)F)nc3ccccc23)c(N)n(Cc2ccccc2)c1=O,inactive: 16.7%,
CCOC(=O)c1c(-c2ccc(OC)cc2)csc1/N=C/C1C(=O)CCCC1=O,,active: 3.16 µM
CC1=NN(c2ccccc2)C(=O)/C1=C\C=C1\N(C)c2ccccc2C1(C)C,inactive: 9.62%,
O=C(N/C(=C\c1cccc([N+](=O)[O-])c1)C(=O)N1CCCCC1)c1cccs1,inactive: -6.09%,
CC(=O)c1ccc(NC(=S)NC(=O)CC(C)C)cc1,,active: 12.6 µM
CCN(CC)C(=O)CC(c1ccc(N(C)C)cc1)c1c(O)cc(OC)cc1OC (stereo not drawn),inactive: -27.9%,
O=C(O)c1ccc2c3c1cccc3c(=O)n1c3ccccc3nc21,inactive: 16.5%,

SMILES,"activity change, negative = inhibition",Potency
NC(CSSCC(N)C(=O)O)C(=O)O (stereo not drawn),inactive: -7.83% [at 10 µM],
COc1ccc(NC(=S)N(CCCN2CCCC(C)C2)Cc2cccs2)cc1 (stereo not drawn),,active: 11.2 µM
COc1cc(OC)cc(-c2nnc(NC(=O)Cc3ccc(F)cc3)o2)c1,,active: 0.708 µM
C[C@@H](C(=O)Nc1ccc2ccccc2c1)[C@@H]1C[C@@]1(C)[C@@H](NC(=O)c1cnccn1)c1ccccc1,,inactive
CC(=O)SC(C[N+](=O)[O-])c1cn(C(C)=O)c2ccccc12 (stereo not drawn),,active: 11.2 µM
C[C@@H](C(=O)NCC1CC1)[C@@H]1C[C@@]1(C)[C@@H](NC(=O)OCc1ccccc1)c1ccccc1,inactive: 22.8%,
Cc1cc(N=Nc2ccc3ccccc3c2)ccc1O,,active: 11.2 µM
O=C(NC(=S)NNC(=O)c1ccco1)c1ccc(Br)cc1,,active: 12.6 µM
Cc1ccc(/C=N/Nc2ccc3ccccc3n2)o1,,active: 12.6 µM
Cc1ccc(Cl)cc1NC(=S)N(Cc1ccco1)C(C)c1cccs1 (stereo not drawn),,active: 3.55 µM
Cc1[nH]n(-c2ccc(Br)cc2)c(=O)c1/C=N/NC(=O)c1ccccc1,,active: 0.282 µM
CCCn1nnnc1NC(=O)c1cc(Cl)ccc1Cl,,active: 1.58 µM
CC(C)CC(C)c1cc(N)nc2nc3ccccc3n12 (stereo not drawn),,active: 15.8 µM
CC1=CC(C)(C)Nc2ccccc21,,inactive
O=c1c(/C=N/OCc2ccc(Cl)cc2Cl)c[nH]n1-c1cccc(Cl)n1,,active: 12.6 µM
CC(C)CCOCC(O)CCC(=O)NNC(=S)Nc1ccccc1 (stereo not drawn),,active: 11.2 µM
OCc1cc(C(O)CNCCCCCCOCCCCc2ccccc2)ccc1O (stereo not drawn),inactive: 1.99% [at 10 µM],
Cc1[nH]n(-c2ccccc2)c(=O)c1/C=N/NC(=O)c1ccoc1C,,active: 0.251 µM
Cc1cc(C)n(-c2nc(NCc3cccnc3)c3c4c(sc3n2)COC(C)(C)C4)n1,,active: 3.98 µM
COC(=O)[C@@]1(Cc2ccc(F)cc2)[C@H]2c3cc(C(=O)N(C)C)n(Cc4c(CO)[nH]cc(C)c4=O)c3C[C@H]2CN1C(=O)c1ccccc1,inactive: 3.05%,
c1ccc(-c2ccc(-c3ccccn3)nn2)nc1,,active: 5.62 µM
NC(=O)C1=C[C@H](c2ccc(Br)cc2)C[C@H](OCc2ccc(CO)cc2)O1,inactive: 24.7%,
CS(=O)(=O)CCNCc1nc(-c2ccc3ncnc(Nc4ccc(OCc5cccc(F)c5)c(Cl)c4)c3c2)cs1,inactive: -43.1%,
COC(=O)[C@@H](NC(=O)O[C@@H]1C(=O)c2ccc(OC)cc2O[C@H]1c1cccc(C(F)(F)F)c1)C(C)C,inactive: -26.7%,

SMILES,"activity change, negative = inhibition",Potency
CNC(=O)[C@@H]1C[C@H]1[C@@H](NC(=O)OCc1ccccc1)c1ccccc1,inactive: -20.8%,
CC1CNCCN1S(=O)(=O)c1cccc2cnccc12 (stereo not drawn),inactive: -3.74%,
O=C(Nc1ccccc1)C1=C[C@H](c2ccc(C(F)(F)F)cc2)C[C@H](OCc2ccc(CO)cc2)O1,inactive: -4.9%,
CCC[C@@H]1C[C@@]1(CCC)[C@@H](NC(=O)c1ccccc1)c1ccc(C(=O)OC)cc1,inactive: 12%,
C[C@@H](C(=O)CC(=O)OC(C)(C)C)[C@@H](O)c1ccccc1,inactive: 0.134%,
Cc1cccc(Nc2ccccc2C(=O)O)c1C,,inactive
c1ccc2c(c1)Cc1cc3ccccc3nc1-2,inactive: -43.5%,
CN(C)/C=C1/N=C(c2ccccc2)OC1=O,inactive: 10.6%,
COc1c(O)cc2oc3cc(O)c(CC=C(C)C)c(O)c3c(=O)c2c1CC=C(C)C,inactive: 22.9%,
COc1cccc2cc(-c3n[nH]c(=S)n3C)oc12,,active: 3.55 µM
CC(C)NCC(O)c1cc(O)cc(O)c1 (stereo not drawn),inactive: 14.2%,
O=C(NCc1ccccc1)C1=C[C@@H](c2ccc(C(F)(F)F)cc2)C[C@@H](OCc2ccc(CO)cc2)O1,inactive: 9.77%,
C#CCN(C)CCCOc1ccc(Cl)cc1Cl,,inactive
CC(=O)C1=C(C)N(CC2CC2)C(=O)N[C@H]1c1ccccc1,inactive: 4.1%,
Cc1ccc(N2C(=O)/C(=C/c3ccco3)SC2=S)cc1,inactive: 21.4%,
Cn1c(=O)c(C(=O)COC(=O)c2cc(C(F)(F)F)nc3c(C(F)(F)F)cccc23)c(N)n(CC2CC2)c1=O,inactive: 14.6%,
CN(C/C=C/C#CC(C)(C)C)Cc1cccc2ccccc12,inactive: 35.1%,
O=C(NCc1nc2ccccc2[nH]1)C1=C[C@@H](c2ccc3c(c2)OCO3)C[C@@H](OCc2ccc(CO)cc2)O1,inactive: -18.7%,
Cc1ccc(Cl)cc1NC(=O)COC(=O)C12CC3CC(CC(C3)C1)C2,inactive: -18.3%,
O=C(/C=C/Nc1cccc(O)c1)c1ccccc1,,active: 5.01 µM
COc1ccc(-c2n[nH]c(=S)n2Cc2ccccc2)cc1OC,,active: 11.2 µM
COc1ccc2cc1Oc1ccc(cc1)CC1c3c(cc4c(c3Oc3cc5c(cc3OC)CCN(C)C5C2)OCO4)CCN1C (stereo not drawn),inactive: -18.8%,
O=C(NCc1ccccc1)C1=C[C@H](C2CCCCC2)C[C@H](OCc2ccc(CO)cc2)O1,inactive: 0.553%,
CCOc1cccc(C(=O)NC(=S)Nc2cccnc2)c1,,active: 14.1 µM

SMILES,"activity change, negative = inhibition",Potency
O=C(c1cc2ccccc2o1)N1CCN(Cc2ccccc2)CC1,inactive: 31.1%,
CCOC(=O)c1ccc(N)cc1,inactive: 6.85% [at 2.98 µM],
CCCn1c(=S)[nH]c2sc3c(c2c1=O)CCCC3,,active: 0.282 µM
CC(C)(C)Nc1nc(-c2ccccn2)nc2ccccc12,,active: 1.41 µM
O=C(CCCN1C(=O)/C(=C/c2cccs2)SC1=S)NNC(=O)c1cccnc1,inactive: -16.7%,
CCO[C@@H]1OC(C(=O)NCc2ccccc2)=C[C@H](c2ccc(Br)cc2)[C@H]1CCCO,inactive: 7.63%,
CC(C)c1ccc2c(c1)c(SC(C)(C)C)c(CC(C)(C)C(=O)O)n2Cc1ccc(Cl)cc1,,inactive
COC(=O)[C@@H]1C[C@H]1[C@@H](NC(=O)c1ccccc1)c1ccccc1,,inactive
CCN(CC)CCC(c1cc(OC)c(OC)c(OC)c1)c1c(OC)cc(OC)c2c(-c3ccccc3)cc(=O)oc12 (stereo not drawn),inactive: -39.1%,
COc1ccc(CNC(=O)c2ccc(Br)o2)cc1,inactive: 30.7%,
C[C@@H]1C[C@H]2[C@@H]3C[C@H](F)C4=CC(=O)C=C[C@@]4(C)[C@]3(F)[C@H](O)C[C@]2(C)[C@@]1(O)C(=O)CO,inactive: -6.73% [at 2.98 µM],
CCCCCCCCNc1ncnc2ccccc12,,active: 2.24 µM
C=C(C)C1CC=C(C)/C(=N\NC(=O)CNc2ccccc2OC)C1 (stereo not drawn),inactive: 18.3%,
COc1ccccc1C1=Nn2c(nnc2-c2ccccc2C)SC1,inactive: -0.543%,
CC(C)c1ccc(C2c3[nH]c4ccccc4c3C[C@H]3C(=O)N(c4ccccc4C(=O)N4CCC[C@@H]4C(=O)O)C(=O)N23)cc1 (stereo partly drawn),inactive: 41.1%,
O=C1NC(=O)C(c2ccccc2)(c2ccccc2)N1,,inactive
CCN(CC)CCC(c1ccc2c(c1)OCO2)c1c(OC)cc(OC)c2c(-c3ccccc3)cc(=O)oc12 (stereo not drawn),inactive: -31.2%,
CCCCCCC(=O)N1C/C=C\C(c2ccc(OC)cc2)N(Cc2ccc(F)cc2)C(=O)C1 (stereo not drawn),inactive: -5.05%,
CCO[C@H]1OC(C(=O)NCc2ccccc2)=C[C@@H](C)[C@@H]1CCCO,inactive: -0.0608%,
O=C(O)CCn1cc(/C=C/C(=O)c2ccc(Cl)cc2)c(-c2cccc(Br)c2)n1,inactive: 19.9%,
COc1ccc(SCC(CC(C)C)N2CCN(CCc3ccccc3)CCC2=O)cc1 (stereo not drawn),inactive: 12.7%,
